Residue numbers refer to the chain shown, from its start. Results are given in words; binding and its absence hold for the method and conditions named. Binding seen in cells or lysates may run through a third protein. Some results given as binding are weak or reduced against the parent protein; the word gives no strength. Sequences can lack the tags named with a protein. Blank lines part the entries; values can stand above or below the molecule they belong to.
How the values were obtained:
[1] = biological target: T1, HA-tagged full-length SUSD4 (mouse) (UniProt Q8BH32); assay: pull-down; HA-SUSD4 or HA-SUSD4ΔCT from transfected HEK293H lysate held on anti-HA antibody and protein G-sepharose beads (or GFP-coated beads as control), washed, incubated 3 hr at 4°C with lysate of cerebellar synaptosomes of P30 WT mice; washes with lysis buffer plus 0.1% SDS; immunoblot for NEDD4, ITCH, WWP1 and HA; only the target purified
T1 sequence: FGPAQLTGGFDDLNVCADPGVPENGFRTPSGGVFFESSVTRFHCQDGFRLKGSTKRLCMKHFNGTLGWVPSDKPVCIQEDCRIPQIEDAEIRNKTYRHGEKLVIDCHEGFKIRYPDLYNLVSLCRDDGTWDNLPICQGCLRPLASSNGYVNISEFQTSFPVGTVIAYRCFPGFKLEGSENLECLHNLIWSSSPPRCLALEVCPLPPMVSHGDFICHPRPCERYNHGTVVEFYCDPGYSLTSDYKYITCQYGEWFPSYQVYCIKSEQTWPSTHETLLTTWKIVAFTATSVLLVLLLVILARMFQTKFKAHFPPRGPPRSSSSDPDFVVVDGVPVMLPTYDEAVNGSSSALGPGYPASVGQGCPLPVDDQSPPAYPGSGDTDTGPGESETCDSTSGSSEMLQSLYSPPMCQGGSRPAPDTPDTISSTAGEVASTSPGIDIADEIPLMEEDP

Sequences of proteins named here, by UniProt entry; tags and fusion partners are left off. Residues count along the entry.
UniProt P19491, residues 22-883: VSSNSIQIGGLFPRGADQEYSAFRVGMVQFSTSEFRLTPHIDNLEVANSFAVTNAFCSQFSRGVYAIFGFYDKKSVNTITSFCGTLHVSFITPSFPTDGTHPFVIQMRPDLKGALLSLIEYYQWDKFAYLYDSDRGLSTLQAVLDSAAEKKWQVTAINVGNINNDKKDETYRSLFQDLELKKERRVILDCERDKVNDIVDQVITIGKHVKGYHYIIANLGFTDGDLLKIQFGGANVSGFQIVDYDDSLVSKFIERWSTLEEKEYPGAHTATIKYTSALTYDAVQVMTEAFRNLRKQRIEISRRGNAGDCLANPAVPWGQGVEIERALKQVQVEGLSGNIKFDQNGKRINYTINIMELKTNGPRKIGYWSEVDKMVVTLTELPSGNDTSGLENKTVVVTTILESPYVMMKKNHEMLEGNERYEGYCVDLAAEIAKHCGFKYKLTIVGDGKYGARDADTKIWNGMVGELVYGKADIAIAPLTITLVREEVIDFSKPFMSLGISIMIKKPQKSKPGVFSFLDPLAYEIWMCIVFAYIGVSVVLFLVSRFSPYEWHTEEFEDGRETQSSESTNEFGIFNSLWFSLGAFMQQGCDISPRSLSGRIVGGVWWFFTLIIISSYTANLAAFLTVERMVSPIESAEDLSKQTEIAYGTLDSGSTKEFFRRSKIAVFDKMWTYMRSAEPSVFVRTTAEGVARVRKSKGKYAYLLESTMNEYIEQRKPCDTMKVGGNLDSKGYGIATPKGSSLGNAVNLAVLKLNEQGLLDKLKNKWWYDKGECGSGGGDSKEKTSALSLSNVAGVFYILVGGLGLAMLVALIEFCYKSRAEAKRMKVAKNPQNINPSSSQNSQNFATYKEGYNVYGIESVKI
UniProt Q8C863: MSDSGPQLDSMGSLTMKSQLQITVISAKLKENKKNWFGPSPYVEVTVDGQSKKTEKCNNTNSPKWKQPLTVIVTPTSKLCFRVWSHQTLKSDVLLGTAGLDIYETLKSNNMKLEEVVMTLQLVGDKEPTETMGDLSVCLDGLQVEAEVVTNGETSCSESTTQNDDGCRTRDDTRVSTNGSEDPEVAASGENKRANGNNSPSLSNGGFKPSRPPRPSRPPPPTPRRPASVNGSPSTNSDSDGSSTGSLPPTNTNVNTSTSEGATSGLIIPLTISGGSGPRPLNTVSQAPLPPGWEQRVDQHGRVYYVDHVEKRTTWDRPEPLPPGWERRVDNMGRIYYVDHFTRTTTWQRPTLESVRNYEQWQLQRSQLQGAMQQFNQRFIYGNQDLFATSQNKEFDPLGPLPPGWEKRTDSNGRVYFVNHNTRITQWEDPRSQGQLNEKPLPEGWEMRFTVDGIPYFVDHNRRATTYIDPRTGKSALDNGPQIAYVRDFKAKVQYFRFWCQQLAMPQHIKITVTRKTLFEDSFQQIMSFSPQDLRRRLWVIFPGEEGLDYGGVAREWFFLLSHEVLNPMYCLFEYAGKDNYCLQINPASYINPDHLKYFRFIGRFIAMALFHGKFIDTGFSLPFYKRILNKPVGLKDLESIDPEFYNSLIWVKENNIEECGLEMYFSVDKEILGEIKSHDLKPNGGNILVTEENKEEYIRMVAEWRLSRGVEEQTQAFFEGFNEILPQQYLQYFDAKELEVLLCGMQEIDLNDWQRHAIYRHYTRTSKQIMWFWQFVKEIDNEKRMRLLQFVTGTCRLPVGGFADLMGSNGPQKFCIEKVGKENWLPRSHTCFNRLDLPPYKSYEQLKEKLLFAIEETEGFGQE
UniProt P46935: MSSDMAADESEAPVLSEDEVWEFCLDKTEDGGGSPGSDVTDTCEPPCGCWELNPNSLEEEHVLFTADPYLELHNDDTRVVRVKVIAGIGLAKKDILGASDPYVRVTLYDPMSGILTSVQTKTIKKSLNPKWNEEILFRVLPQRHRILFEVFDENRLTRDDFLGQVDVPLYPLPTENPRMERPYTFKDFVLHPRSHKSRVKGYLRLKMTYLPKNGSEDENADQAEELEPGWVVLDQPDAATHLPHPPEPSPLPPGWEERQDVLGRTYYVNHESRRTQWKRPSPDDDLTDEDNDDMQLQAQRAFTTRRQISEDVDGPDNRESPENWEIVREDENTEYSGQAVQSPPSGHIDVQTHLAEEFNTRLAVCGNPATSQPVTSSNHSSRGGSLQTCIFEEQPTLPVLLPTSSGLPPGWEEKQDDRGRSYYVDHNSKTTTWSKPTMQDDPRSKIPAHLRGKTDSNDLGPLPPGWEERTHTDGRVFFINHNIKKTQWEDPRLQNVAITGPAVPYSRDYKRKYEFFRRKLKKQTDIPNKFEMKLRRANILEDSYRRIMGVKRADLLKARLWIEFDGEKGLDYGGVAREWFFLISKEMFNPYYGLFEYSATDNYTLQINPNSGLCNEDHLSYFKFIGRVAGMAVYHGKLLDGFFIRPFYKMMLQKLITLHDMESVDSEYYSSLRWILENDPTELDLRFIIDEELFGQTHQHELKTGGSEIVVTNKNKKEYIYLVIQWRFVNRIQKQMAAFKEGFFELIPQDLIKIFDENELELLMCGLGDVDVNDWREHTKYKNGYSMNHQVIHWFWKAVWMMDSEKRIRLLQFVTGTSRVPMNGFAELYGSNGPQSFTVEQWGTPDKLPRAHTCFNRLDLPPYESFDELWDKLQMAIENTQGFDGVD
UniProt P46934: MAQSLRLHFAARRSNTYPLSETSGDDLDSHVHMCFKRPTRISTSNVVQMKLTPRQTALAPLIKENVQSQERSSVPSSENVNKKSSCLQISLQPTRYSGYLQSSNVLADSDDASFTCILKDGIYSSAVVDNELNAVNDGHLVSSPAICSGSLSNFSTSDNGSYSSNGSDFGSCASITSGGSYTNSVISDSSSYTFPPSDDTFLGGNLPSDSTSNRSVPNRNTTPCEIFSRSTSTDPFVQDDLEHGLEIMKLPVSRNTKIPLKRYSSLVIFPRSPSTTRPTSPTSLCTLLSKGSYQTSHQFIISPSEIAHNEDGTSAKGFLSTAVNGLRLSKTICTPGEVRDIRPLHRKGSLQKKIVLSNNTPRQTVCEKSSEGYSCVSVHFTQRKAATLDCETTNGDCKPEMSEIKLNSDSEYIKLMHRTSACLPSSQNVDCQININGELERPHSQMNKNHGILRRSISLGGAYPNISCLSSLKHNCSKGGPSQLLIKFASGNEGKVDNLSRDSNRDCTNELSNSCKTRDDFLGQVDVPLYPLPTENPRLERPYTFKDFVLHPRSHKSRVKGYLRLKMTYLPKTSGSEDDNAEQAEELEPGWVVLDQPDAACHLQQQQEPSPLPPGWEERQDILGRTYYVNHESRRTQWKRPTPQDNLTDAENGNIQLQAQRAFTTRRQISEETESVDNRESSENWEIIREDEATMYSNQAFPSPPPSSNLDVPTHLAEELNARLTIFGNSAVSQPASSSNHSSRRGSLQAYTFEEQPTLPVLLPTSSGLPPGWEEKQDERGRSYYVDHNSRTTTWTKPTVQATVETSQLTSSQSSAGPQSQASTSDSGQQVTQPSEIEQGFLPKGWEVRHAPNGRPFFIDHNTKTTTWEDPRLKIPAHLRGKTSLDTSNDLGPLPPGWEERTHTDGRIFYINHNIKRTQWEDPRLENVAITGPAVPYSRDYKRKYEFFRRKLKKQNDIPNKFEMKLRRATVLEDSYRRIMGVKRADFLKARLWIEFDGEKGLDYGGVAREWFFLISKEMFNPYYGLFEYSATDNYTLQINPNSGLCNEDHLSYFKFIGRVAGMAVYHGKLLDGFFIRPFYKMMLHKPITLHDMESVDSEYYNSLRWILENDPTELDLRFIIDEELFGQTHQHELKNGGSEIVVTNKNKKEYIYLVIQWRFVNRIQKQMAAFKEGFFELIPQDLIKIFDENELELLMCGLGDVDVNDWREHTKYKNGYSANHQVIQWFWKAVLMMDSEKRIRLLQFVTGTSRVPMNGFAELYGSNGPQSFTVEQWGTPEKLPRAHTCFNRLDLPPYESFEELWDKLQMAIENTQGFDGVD
UniProt Q9JLB9, residues 58-549: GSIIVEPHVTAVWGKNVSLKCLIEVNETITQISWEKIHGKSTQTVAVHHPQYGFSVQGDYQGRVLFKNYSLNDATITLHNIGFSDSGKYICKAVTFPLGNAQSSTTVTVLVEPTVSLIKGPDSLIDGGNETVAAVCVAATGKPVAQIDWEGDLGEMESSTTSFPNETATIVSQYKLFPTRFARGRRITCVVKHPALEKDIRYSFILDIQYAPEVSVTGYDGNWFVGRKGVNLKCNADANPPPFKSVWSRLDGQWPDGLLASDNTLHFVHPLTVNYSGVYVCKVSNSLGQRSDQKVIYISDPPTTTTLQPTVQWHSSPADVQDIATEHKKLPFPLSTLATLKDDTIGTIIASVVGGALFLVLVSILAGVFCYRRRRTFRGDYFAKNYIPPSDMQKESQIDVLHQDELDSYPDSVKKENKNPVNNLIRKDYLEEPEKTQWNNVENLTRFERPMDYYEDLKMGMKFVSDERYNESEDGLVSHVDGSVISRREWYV

[2] = biological target: T2, HA-SUSD4-ΔPY/LY (double mutant at both PPxY and LPxY) (mouse) (UniProt Q8BH32); assay: co-IP; HEK293H cells transfected with SEP-GluA2 together with one of the HA-SUSD4 constructs; precipitation with rat anti-HA antibody on Dynabeads Protein G, 1 hr at 4°C; immunoblot for GluA2 and endogenous NEDD4
T2 sequence: T1 sequence with L335A, Y338A, P370A, Y373A

[3] = biological target: T1, HA-tagged full-length SUSD4 (mouse); assay: as above
[4] = biological target: T3, HA-SUSD4-ΔPY (point mutation of the PPxY site) (mouse) (UniProt Q8BH32); assay: as above
T3 sequence: T1 sequence with P370A, Y373A

[5] = biological target: T4, HA-SUSD4-ΔNT (lacking the extracellular domain) (mouse) (UniProt Q8BH32); assay: as above
T4 sequence: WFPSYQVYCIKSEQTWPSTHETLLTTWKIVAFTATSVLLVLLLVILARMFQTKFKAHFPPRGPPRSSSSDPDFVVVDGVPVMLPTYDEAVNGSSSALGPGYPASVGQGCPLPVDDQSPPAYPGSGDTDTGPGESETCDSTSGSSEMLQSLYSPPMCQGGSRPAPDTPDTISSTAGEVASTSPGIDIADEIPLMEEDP

[6] = biological target: T5, HA-SUSD4-ΔLY (point mutation of the LPxY site) (mouse) (UniProt Q8BH32); assay: as above
T5 sequence: T1 sequence with L335A, Y338A

SEP-tagged GluA2 = SEP-tagged GluA2 (UniProt P19491); assay: co-IP; HEK293H cells transfected with SEP-GluA2 together with HA-SUSD4 or PVRL3α; lysis in 50 mM Tris-HCl pH 8, 1% Triton X100; precipitation of SEP-GluA2 with mouse anti-GFP antibody on protein G Dynabeads, 1 hr at 4°C; immunoblot for HA-SUSD4, GluA2 and PVRL3α
[7] = biological target: T6, HA-SUSD4-NT (extracellular form of SUSD4) (mouse) (UniProt Q8BH32); assay: co-IP; HEK293H cells transfected with SEP-GluA2 together with one of the HA-SUSD4 constructs; precipitation with rat anti-HA antibody on Dynabeads Protein G, 1 hr at 4°C; immunoblot for GluA2 and endogenous NEDD4
T6 sequence: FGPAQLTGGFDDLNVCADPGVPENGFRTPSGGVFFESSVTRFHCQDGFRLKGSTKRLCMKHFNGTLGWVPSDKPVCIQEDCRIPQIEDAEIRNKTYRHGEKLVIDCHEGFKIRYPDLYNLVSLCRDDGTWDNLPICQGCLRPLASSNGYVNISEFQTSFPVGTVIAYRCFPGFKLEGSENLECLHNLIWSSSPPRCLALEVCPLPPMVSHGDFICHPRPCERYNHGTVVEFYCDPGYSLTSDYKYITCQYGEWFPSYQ

binding [1]: binds
Molecule: E3 ubiquitin-protein ligase Itchy (from UniProt Q8C863 1-864) (enzyme)

binding [1]: binds
Molecule: E3 ubiquitin-protein ligase NEDD4 (from UniProt P46935 1-887) (enzyme)

binding [2]: no binding
binding [3]: binds
binding [4]: binds
binding [5]: binds
binding [6]: no binding
Molecule: HECT ubiquitin ligase NEDD4 (endogenous in HEK293 cells) (from UniProt P46934 1-1319) (enzyme)

binding [1]: binds
Molecule: NEDD4-like E3 ubiquitin-protein ligase WWP1 (from UniProt Q8BZZ3 1-918) (enzyme)

binding (SEP-tagged GluA2): no binding
Molecule: PVRL3α (control transmembrane protein) (from UniProt Q9JLB9 58-549)

binding [2]: binds
binding [7]: binds
binding [3]: binds
binding [5]: binds
binding [6]: binds
Molecule: SEP-tagged GluA2 (from UniProt P19491 22-883) (receptor)

binding (SEP-tagged GluA2): binds
B1: HA-tagged full-length SUSD4 (protein, UniProt Q8BH32-1 42-490)
chain: T1 sequence
